Measurements: PubChem BioAssay AID1794842 (National Center for Advancing Translational Sciences (NCATS), 2023)
Screen size: about 2,800 compounds; fewer than 10 were called active. Calls come from the whole dose curve; as a rule, active = well fitted curve in the direction sought with a large enough effect; inconclusive = small, poorly fitted or top-dose-only effect, or another doubt; inactive = no such curve, though single readings can be large or run the other way. This is one part of the list.

molecular target: Metallo-beta-lactamase type 2 (Klebsiella pneumoniae) (UniProt C7C422); assay: qHTS to identify inhibitors of the New Delhi Metallo-beta-lactamase (NDM): Meropenem screen against the machine-based learning selections.; note: % of control where 0% means no effect; details: Purified NDM-1, meropenem hydrolysis, absorbance 300 nm; at 38.4 µM (top of the series) unless noted
Sequence of UniProt C7C422 (C7C422 whole entry, looked up): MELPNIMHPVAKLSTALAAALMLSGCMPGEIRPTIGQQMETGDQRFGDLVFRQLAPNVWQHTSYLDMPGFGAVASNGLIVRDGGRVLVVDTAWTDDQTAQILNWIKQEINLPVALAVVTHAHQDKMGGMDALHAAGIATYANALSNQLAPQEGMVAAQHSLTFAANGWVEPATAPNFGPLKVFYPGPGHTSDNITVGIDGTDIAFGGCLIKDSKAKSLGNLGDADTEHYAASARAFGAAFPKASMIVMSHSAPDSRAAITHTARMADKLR
In short: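 Hydrolysis by 2 nM NDM-1 was followed by absorbance after >30 min compound preincubation in HEPES pH 7.0 buffer with 1 uM Zn2SO4. For nitrocefin (16.7 uM, 15 min, 485 nm) and meropenem (50 uM, 30 min, 300 nm), each substrate ran on separate plates.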

Activity change, negative = inhibition, inactive:
OCc1cccc(-c2ccc3ncc(Nc4ccc(OCCN5CCCC5)cc4)n3n2)c1 -1.46% [at 57.5 µM]
COCCOc1ccnc(-c2noc([C@@H]3CCCN3Cc3ccc4c(c3)OCO4)n2)c1 4.05% [at 57.5 µM]
CC(C)(C)C(=O)N1CC[C@@H](CC(=O)O)[C@@H](CC2=NCCc3cc(F)ccc32)C1 26.2% [at 57.5 µM]
CCNC(=O)N[C@@H]1C=C[C@@H](c2c(C)nn(-c3ccc(OC)cc3)c2C)C1 1.36% [at 57.5 µM]
COCC(=O)N[C@@H]1CN(Cc2ccc(C)cn2)C[C@H]1CO -2.12%
COCCc1noc(CN(C)c2cc(C(C)C)nc3ccnn23)n1 -1.68%
CC(C)(C)c1cc(CC2(NCc3ccc(Cl)cc3)COC2)no1 -2.28% [at 57.5 µM]
CCOCC(=O)N1CCn2nc(Cc3ccccc3)cc2C1 -0.143%
COc1ccc2[nH]c(C[C@@H]3C[C@@H](C(C)C)[C@H](CN(Cc4ccccn4)Cc4ccccn4)C=C3C)nc2n1 38.7%
CC(C)(C)c1ccc2oc(CNC(=O)CN3C(=O)CNC3=O)nc2c1 -0.922%
Cc1ccc(-n2nc(C)c([C@@H]3C=C[C@@H](NCc4cccc(C#N)c4)C3)c2C)cc1Cl -1.91% [at 57.5 µM]
O=C(Cc1ccc(OC(F)(F)F)cc1)N1CC2CC(C1)[C@H]1CCCC(=O)N1C2 (some centres undefined) -2.02%
COc1ccc(C(=O)N2CCC3(CC2)CC(OCC2CC2)CCO3)cn1 (centres undefined) 1.34%
CCCNC(=O)N[C@@H]1CCC[C@@H](C(=O)NCc2ccc(OC)cc2)CC(=O)N(C)C1 2.38% [at 57.5 µM]
Cc1c(C(=O)NC2CC(c3nnc(CO)n3C3CC3)C2)n(C)c2c(C)cccc12 (centres undefined) 3.14%
CC(C)(C)CC(=O)N[C@H]1C[C@H]2C(=O)Nc3ccc(-c4cccs4)cc3C(=O)N2C1 8.4% [at 57.5 µM]
CS(=O)(=O)N1CC(C(=O)Nc2ccc(N3CCOCC3)cc2)C2(CCCCC2)C1 (centres undefined) -0.306%
CS(=O)(=O)N1CCC(C2CCN(C(=O)Cc3cccs3)C2)CC1 (centres undefined) 0.291%
CC(=O)Nc1ccc(CC(=O)N2CCC(C)(c3noc(C)n3)CC2)cc1 0.338%
CC(C)Nc1ncc(C(=O)NC2CCCN(CCc3ccccc3)C2)cn1 (centres undefined) 1.19%
CC1(C(=O)NCc2cccnc2)CCc2cnc(NCc3ccccc3)nc21 (centres undefined) -3.15% [at 57.5 µM]
O=C(O)c1cccc([S+](=O)([O-])N2CC(CNC(=O)c3ccccc3)C3(CN(c4ccccc4)C3)C2)c1 (centres undefined) -2.54%
CCN1CCN(C2(C(=O)NCCc3ccccc3)Cc3ccccc3C2)CC1 -1.55%
COc1cccc(Nc2cc3c(cn2)CN(Cc2cccnc2)CCN3)c1 -3.69% [at 57.5 µM]
CC[C@@]1(C(=O)O)C[C@H](C(=O)NC(CO)CO)[C@H](c2ccc(F)cc2)N1C 21.7%
COc1ccc(C(=O)N[C@H](Cc2ccccn2)C2CC(O)C2)cc1F (some centres undefined) -0.207%
Cc1noc2c(Nc3ccc(C(N)=O)cc3)cc(-c3ccc(F)cc3)nc12 -1.96% [at 57.5 µM]
CN(CCO)C[C@@H]1CN(C(=O)c2nc3ccccc3[nH]c2=O)C[C@@H]1CO 1.08%
Cc1cncc(C(=O)N2CC[C@@H](c3ccc4ccccc4c3)[C@H](O)C2)c1 -0.608%
CN1[C@@H](CCC(=O)N2CCN(c3ccccc3)CC2)CNC(=O)[C@@H]2[C@H]1CCN2CC(C)(C)C 1.39%
O=C(N[C@H](c1cccs1)C1CC(O)C1)C1CCN(C2CCOCC2)CC1 (some centres undefined) -0.235%
Cc1cccc(Nc2nc(N)nc(CN3CC[C@@H](N)[C@H](O)C3)n2)c1 8.91%
O=C(Nc1ccc2c(c1)OCO2)C1CCc2sc(C(=O)N3CCCC3)cc2C1 (centres undefined) 4.03%
CN(C)C(=O)N1CCCn2nc(CNC(=O)c3ccc4[nH]ccc4c3)cc2C1 2.4%
Fc1ccc(-c2cnc([C@@H]3COCCN3C3CCC3)[nH]2)cc1 -0.292% [at 57.5 µM]
COc1ccc(CNC(=O)[C@@H]2Cc3nc[nH]c3CN2Cc2ccc(Cl)cc2)cc1 18% [at 57.5 µM]
Cc1ccc(-c2cc(O)c3c(c2)CNCCO3)s1 10.5%
O=C(c1ccc2nccnc2c1)N1CCC2(CC1)Nc1ccccc1NC2=O 5.68%
c1ccc(CN2CC(CNc3cccnc3)C3(C2)CN(c2ccccc2)C3)cc1 (centres undefined) 1.76% [at 57.5 µM]
O=C(Nc1ccc([C@H]2OCC(=O)N(CC3CCCCC3)[C@@H]2CO)cc1)c1ccccn1 35.5% [at 57.5 µM]
CC(C)NC(=O)C[C@@H]1C[C@H]2O[C@H](CNCc3cnccc3Cl)[C@@H](O)[C@H]2O1 1.51% [at 57.5 µM]
COCCNC(=O)C[C@@H]1C[C@@H](C(C)C)[C@H](CNC(=O)CCC(=O)O)C=C1C 2.81% [at 57.5 µM]
COc1ccccc1-c1[nH]nc2ncc(-c3cccc(O)c3)nc12 3.21% [at 57.5 µM]
O=C1[C@@H]2C[C@@H](CN2Cc2cnc3ccccc3c2)Oc2ccccc2N1Cc1ccccc1 1.36%
O=C(NC[C@H]1O[C@@H](CC(=O)N2CCOCC2)[C@H](O)[C@@H]1O)Nc1ccc(F)cc1F 8.7% [at 57.5 µM]
CCn1c(C)cc(C)c(C(=O)NCC2CCN(c3cnn(C)c(=O)c3)C2)c1=O (centres undefined) 6.1%
CC(C)C1c2nccn2CCCN1C(=O)CN1CCCC1=O (centres undefined) -1.43%
Cc1ccc2c(c1)nc1n2[C@@H](CNC(C)C)COC1 0.33% [at 76.7 µM]
Cc1noc(C)c1S(=O)(=O)N1CCCC(Cc2nncn2CC2CC2)C1 (centres undefined) 2.13%
O=C(NC[C@H]1O[C@@H](CC(=O)N2CCN(c3ccc(F)cc3)CC2)[C@H](O)[C@@H]1O)c1ccco1 6.44%
COc1ccc(C(=O)N[C@@H]2CN(C(=O)NC3CCCCC3)CCC[C@H]2O)cc1 -0.965% [at 57.5 µM]
O=C(N[C@@H]1CCN(Cc2ccc3nsnc3c2)C[C@H]1O)c1cnccn1 11.7%
CCC[S+](=O)([O-])N1CCN(C(=O)N2CC3CC(C2)[C@H]2CCCC(=O)N2C3)CC1 (some centres undefined) -3.2%
COc1ccc(-c2ccc3c(c2)C(=O)N2CC[C@H](NC(=O)NC4CCCCC4)[C@H]2C(=O)N3)cc1 9.01%
Cc1ccc(S(N)(=O)=O)cc1C(=O)N1CCC2(CCCNC2=O)C1 (centres undefined) -0.823%
Cn1c(CCNC(=O)c2ccccc2C2CCNC2)nc2ccccc21 (centres undefined) 48.8%
Cn1cnnc1CC1CCN(C(=O)c2cn3ccsc3n2)CC1 1.51%
COc1ccc(-c2cc(-c3cccc(C(N)=O)c3)cn3cncc23)cc1 29.1% [at 57.5 µM]
O=C(c1ccc2cccnc2c1O)N1CCCC(CCc2ccccc2F)C1 (centres undefined) 101%
CN(CCO)CC1(O)CCCN(Cc2cccc(F)c2F)C1=O (centres undefined) 7.29%
CC(C)NC(=O)N1CCN(C(=O)N2CCOCC2)[C@@H](C(=O)N[C@H](Cc2c[nH]c3ccccc23)C(N)=O)C1 3.06%
OCc1cccc(-c2ccc3ncc(Nc4cccnc4)n3n2)c1 46.3% [at 57.5 µM]
OCc1cc2n(n1)CCCN(Cc1cccc(OCc3ccccn3)c1)C2 -1.31%
CCCN(CC1CCOC1)C(=O)c1cc(Cl)ccc1F (centres undefined) -2.61%
Cn1c(CNC(=O)c2cccc(C3CCNC3)c2)nc2ccccc21 (centres undefined) 32.8%
CC(C)CC(=O)N1CCCC(Cc2nncn2C(C)C)C1 (centres undefined) 1.48%
FC(F)(F)Oc1cccc(CN2CCNc3cc(Nc4cccnc4)ncc3C2)c1 -1.26% [at 57.5 µM]
Cc1ncsc1CN(Cc1ccccc1)C(=O)CCn1nnnc1CN1CCOCC1 1.17%
CCc1ccccc1NC(=O)Cn1ccn2nc(-c3ccc(F)cc3)c(CO)c2c1=O -0.362%
COc1ccc(NC(=O)N2CCOC(c3ccc(Cl)cc3)C2)c(C)c1 (centres undefined) -2.56%
CC(C)(C)C(=O)N1CCC2(CC1)OCC(C(=O)NC1CC1)N2C(=O)c1ccc(F)cc1 (centres undefined) -0.368%
Cc1cccnc1C(=O)N[C@@H]1CN(C2CCOCC2)C[C@H]1CN(C)C -1.23%
Nc1ncccc1CN1C[C@H]2CN(C(=O)C3CCC3)C[C@@]2(C(=O)O)C1 40.9%
OCCc1ccc(Nc2cnc3ccc(-c4cccc(CO)c4)nn23)cc1 57.3% [at 57.5 µM]
CN1C(=O)CC(C(=O)O)C12CCN(C(=O)CCc1cccnc1)CC2 (centres undefined) 3.38%
OC[C@@H]1O[C@H](CNCc2ccc(F)cc2)[C@H](N2CCOCC2)[C@@H]1O 67% [at 57.5 µM]
CN(C(=O)C1CCCC1)C1CCc2ccccc2C1 (centres undefined) 1.71% [at 57.5 µM]
Cc1ccccc1-c1cnc2[nH]cc(CC(=O)NCc3cccnc3)c2c1 7.8% [at 57.5 µM]
c1cncc(Nc2cc3c(cn2)CN(Cc2c[nH]c4ccccc24)CCN3)c1 -0.317% [at 57.5 µM]
